Entries with a single value are a further part of the results.
Assay: 12 month stability study: DSC (USP <891>)
Assay type: physicochemical
Details: 1 month
Procedure: Crystalline (3R)-1-(2-methylalanyl-D-tryptophyl)-3-(phenylmethyl)-3-piperidinecarboxylic acid 1,2,2-trimnethylhydrazide was placed in double plastic bags, closed under a nitrogen blanket, and placed inside a small fiberboard container, the physical appearance, water content, purity and crystallinity were tested every three months for a period of 12 months under a variety of conditions.

[1] = 5° C., second DSC thermal event
[2] = 25° C. 60% RH, first DSC thermal event
[3] = 25° C. 60% RH, second DSC thermal event

CN(C)N(C)C(=O)[C@@]1(Cc2ccccc2)CCCN(C(=O)[C@@H](Cc2c[nH]c3ccccc23)NC(=O)C(C)(C)N)C1 [crystalline anamorelin, (3R)-1-(2-methylalanyl-D-tryptophyl)-3-(phenylmethyl)-3-piperidinecarboxylic acid 1,2,2-trimethylhydrazide]
DSC Onset (5° C., first DSC thermal event): 81.8 °C | DSC Peak (5° C., first DSC thermal event): 110.4 °C | DSC Onset [1]: 116.0 °C | DSC Peak [1]: 118.4 °C | DSC Onset [2]: 107.0 °C | DSC Peak [2]: 110.3 °C | DSC Onset [3]: 121.3 °C | DSC Peak [3]: 122.2 °C

— patent US9975921B2, “Crystal forms of anamorelin” (Helsinn Healthcare SA, priority 2004, dated 2018)
